Results reported in PubChem BioAssay AID624417 (National Center for Advancing Translational Sciences (NCATS), 2012).
Out of some 410,000 compounds screened, about 6,400 (1.6%) were called active. Inconclusive means that the source gave no clear call. Such entries were picked first, then a sample of the others. Calls follow the shape of the dose curve; as a rule, active = well fitted inhibition curve with a large enough effect; inconclusive = small, poorly fitted or top-dose-only effect; inactive = no such curve, though single readings can be large or run the other way. Where the call is inconclusive, the potency comes from a doubtful curve fit.

Biological target: Glucagon-like peptide 1 receptor (Homo sapiens) (UniProt P43220)
Experiment: qHTS of GLP-1 Receptor Inverse Agonists (Inhibition Mode); also: nearly all actives have a fitted effect of over 55% in size
Conditions: HEK293 GLP-1R CRE-luciferase, luminescence, 24 h, GLP-1R form is constitutively active; activity change, negative = inhibition: at 38.3 µM (top of the series) unless noted
Outline: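 Readout was luciferase luminescence, measured 12 min after detection reagent at room temperature. Beforehand, GLP-1R reporter HEK293 cells had sat 12 h, then received compounds for 24 hr at 37 deg C.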
% is scaled to controls: 0 for no effect and ±100 for the full control effect; potency is read from the fitted curve at half-maximal effect; tags tell the direction and shape of the fitted curve.

UniProt P43220, sequence (P43220 whole entry, looked up): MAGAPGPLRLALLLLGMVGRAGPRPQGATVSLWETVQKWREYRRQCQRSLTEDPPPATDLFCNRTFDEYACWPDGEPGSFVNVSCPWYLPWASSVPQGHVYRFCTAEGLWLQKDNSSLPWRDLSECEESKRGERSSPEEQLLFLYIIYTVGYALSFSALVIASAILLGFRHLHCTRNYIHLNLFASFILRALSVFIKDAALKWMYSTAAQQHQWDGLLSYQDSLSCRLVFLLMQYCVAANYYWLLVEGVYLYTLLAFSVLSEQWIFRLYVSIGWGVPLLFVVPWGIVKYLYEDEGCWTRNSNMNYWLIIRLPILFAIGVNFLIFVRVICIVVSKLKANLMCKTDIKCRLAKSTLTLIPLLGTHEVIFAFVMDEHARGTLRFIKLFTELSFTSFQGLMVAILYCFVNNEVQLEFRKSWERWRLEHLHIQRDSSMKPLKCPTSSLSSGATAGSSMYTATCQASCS

Potency, active:
Cc1cc(C)cc(OCC(=O)NNC(=O)c2ccccn2)c1 12.6 µM

Potency, inconclusive:
CC1(CCc2ccccc2)NC(=S)N(c2ccc(Cl)cc2)N1 (stereo unspecified) 1 µM [inhibitor, full curve, poor fit], Clc1ccc(CON/C=N/c2ncnc3sccc23)cc1 28.2 µM [inhibitor, single point], COc1ccc(-c2cn3nc(SCC(=O)NCC4CCCO4)ccc3n2)cc1 (stereo unspecified) 22.4 µM [inhibitor, single point], COC(=O)c1cc(C(=O)OC)n(Cc2ccc(F)cc2)c1C 14.1 µM [inhibitor, single point], CC[C@@]12C(=O)N(c3ccc(OC)cc3)C(=O)N1[C@H](c1ccc(Cl)cc1)[C@@H]1C(=O)N(C3CCCCC3)C(=O)[C@@H]12 12.6 µM [inhibitor, partial curve, poor fit], Cc1cc(C)n(-c2nnc(Nc3ccc(C(C)C)cc3)c3ccccc23)n1 12.6 µM [inhibitor, single point], O=C(Cc1ccc(Cl)cc1)Nc1ccccc1N1CCOCC1 22.4 µM [inhibitor, single point], O=C(NCc1ccccc1F)C1CCN(Cc2cc3ccccc3n2Cc2cccc(Cl)c2)CC1 12.6 µM [inhibitor, single point], CN(CC(=O)Nc1ccc(S(=O)(=O)N2CCCC2)cc1)Cc1cccc(Cl)c1Cl 22.4 µM [inhibitor, single point], Cc1c(C(=O)OC2CCCCC2)[nH]c2c1C(=O)CC(c1ccccc1Cl)C2 (stereo unspecified) 3.16 µM [inhibitor, partial curve, poor fit], COc1cc(OC)c(S(=O)(=O)Nc2ccc(C(=O)N3CCCC3)cc2)cc1NC(C)=O 31.6 µM [inhibitor, single point], CC(C)Cc1cc(C(=O)N2CCCC(C(=O)c3cc(F)ccc3F)C2)no1 (stereo unspecified) 31.6 µM [inhibitor, partial curve, poor fit], O=C(CN(Cc1ccccc1)S(=O)(=O)c1ccc2c(c1)OCCO2)Nc1ccc2c(c1)OCCO2 28.2 µM [inhibitor, single point], NC(=O)C1Cc2ccccc2CN1C(=O)c1cccc(Oc2ccccc2)c1 (stereo unspecified) 4.47 µM [inhibitor, partial curve, poor fit], O=C(COCc1cc(-c2cccs2)on1)NCc1ccccc1Cl 25.1 µM [inhibitor, single point], O=C1C=C(NCc2ccc(Cl)cc2)CC(c2ccco2)C1 (stereo unspecified) 11.2 µM [inhibitor, single point], Cc1[nH]c2ccccc2c1C(O)CN1CCN(c2cccc(C(F)(F)F)c2)CC1 (stereo unspecified) 8.91 µM [inhibitor, partial curve, poor fit], Cc1[nH]c2ccccc2c1C(C[N+](=O)[O-])c1cccs1 (stereo unspecified) 28.2 µM [inhibitor, single point], CCN(CCc1ccccc1)c1ccc2c(c1)C1CC2CCN1C(=O)OCc1ccccc1 (stereo unspecified) 11.2 µM [inhibitor, single point], C/C(CCc1oc2ccc(Cl)cc2c1-c1ccc(C)o1)=N\O 14.1 µM [inhibitor, partial curve, poor fit], CC1(C(=O)NS(=O)(=O)c2cccc(OC(F)F)c2)CCN1C(=O)C/C=C/c1ccccc1 (stereo unspecified) 2 µM [inhibitor, partial curve, poor fit], Cc1ccc(Cl)cc1NC(=O)C(NS(=O)(=O)c1cccc2nsnc12)c1ccccc1 (stereo unspecified) 22.4 µM [inhibitor, single point], CCCC(=O)C1=C(O)C(C(=O)OC)C(C)(C)CC1=Nc1ccc(OC)cc1 (stereo unspecified) 12.6 µM [inhibitor, single point], CCOc1ccccc1N(CC(=O)NC1CCCCC1)S(=O)(=O)c1ccccc1 20 µM [inhibitor, single point], COc1ccc(NC(=O)CC2CC3CCC2C3)cn1 (stereo unspecified) 22.4 µM [inhibitor, single point], CC(C)Cn1c(N)c(C(=O)COC(=O)c2ccc(O)cc2O)c(=O)n(C)c1=O 25.1 µM [inhibitor, single point], Cc1nn(-c2ccccc2)c(Cl)c1C1C(C#N)=C(N)OC2=C1C(=O)CC(C)(C)C2 (stereo unspecified) 2.51 µM [inhibitor, full curve, poor fit], O=C(COC(=O)Cc1c(Cl)cccc1Cl)NCCC1=CCCCC1 10 µM [inhibitor, single point], CCOc1ccccc1NC(=O)C1COc2ccccc2O1 (stereo unspecified) 28.2 µM [inhibitor, single point], CC(C)(C)c1ccc(C(=O)NCCC(=O)Nc2ccc3c(c2)OCCO3)cc1 28.2 µM [inhibitor, single point], COc1ccc(NC(=O)C2(c3ccccc3)CCCC2)cc1 5.01 µM [inhibitor, partial curve, poor fit], CCCNC(=O)c1ccc(N2CCC3(CC2)CC(c2ccccc2)=NO3)c(NC(=O)c2ccco2)c1 6.31 µM [inhibitor, partial curve, poor fit], CC(O)[C@H]1CC[C@H]2[C@@H]3CC[C@H]4C[C@@H](O)CC[C@]4(C)[C@H]3/C(=N/O)C[C@]12C (stereo partly specified) 10 µM [inhibitor, single point], C/C(=N\NC(=O)c1ccc(O)cc1)c1ccc2c(c1)Nc1ccccc1S2 3.16 µM [inhibitor, partial curve, poor fit], COc1ccc(-c2noc(CSc3nnc(-c4ccccc4)n3-c3ccc(F)cc3)n2)c(OC)c1 10 µM [inhibitor, partial curve], Cc1ccccc1C(=O)N1CCc2cc(-c3csc(NC(=O)CN4CCCC4)n3)ccc21 10 µM [inhibitor, partial curve], O=C(Nc1ccc(-c2nc3ccccc3[nH]2)cc1)C1CCCO1 (stereo unspecified) 28.2 µM [inhibitor, single point], O=C(CCCc1ccccc1)N1CCc2ccccc21 28.2 µM [inhibitor, single point], O=C(Nc1ccccc1Cl)c1ccccc1Cc1ccccc1 28.2 µM [inhibitor, single point], COC(=O)c1ccc(NC(=O)c2cc(-c3ccncc3)nc3ccccc23)cc1 15.8 µM [inhibitor, single point], Cc1ccc([N+](=O)[O-])cc1-c1ccc(/C=C(\C#N)c2[nH]nc(N)c2C#N)o1 28.2 µM [inhibitor, single point], COc1ccc(C[C@H]2CN3C(=NC[C@@H]3C(C)C)N2CCNC(=O)c2ccc(C)c(Br)c2)cc1 28.2 µM [inhibitor, single point], O=C(OC(c1ccccc1)c1nccc2ccccc12)c1cc([N+](=O)[O-])cc([N+](=O)[O-])c1 (stereo unspecified) 8.91 µM [inhibitor, partial curve], CCOc1ccc(NC(=S)NCCN2CCN(Cc3ccccc3)CC2)cc1 20 µM [inhibitor, single point], Cc1ccc(-c2nnc(OCCN3CCOCC3)c3ccccc23)cc1 10 µM [inhibitor, partial curve, poor fit], CCC(CC)C(=O)Nc1ccc(C(=O)Nc2cc(C)on2)cc1 8.91 µM [inhibitor, partial curve], COc1cc(/C=C/CN2CCC(Oc3ccc(C(=O)N4CCCC4)cc3)CC2)ccc1O 17.8 µM [inhibitor, partial curve, poor fit], CCCC(=O)Nc1cc(C(=O)NCc2ccc(OC)cc2)ccc1S(=O)(=O)c1ccc(Cl)cc1 10 µM [inhibitor, single point], COc1ccccc1C(=O)N/C(=C\c1ccc(Br)cc1)C(=O)N1CCCC1 10 µM [inhibitor, single point], Cc1ccc(CN2C3=NCCN3c3ccccc32)cc1 20 µM [inhibitor, single point], CCOC(=O)c1ccccc1NC(=O)N1CCCN(S(=O)(=O)c2ccc3c(ccn3CC)c2)CC1 28.2 µM [inhibitor, single point]

Potency, inactive:
CSc1nc(NCC(C)O)c2c3c(sc2n1)CN(C)CC3 (stereo unspecified), Cc1nc2nc(NC(=O)c3ccc(F)cc3)[nH]n2c(=O)c1Cc1ccccc1, CCC(=O)N1CCc2cc(S(=O)(=O)NC(C(=O)NCCc3ccc(Cl)cc3)C(C)C)ccc21 (stereo unspecified), Cc1nc2ccccc2c(C(=O)O)c1-c1ccccn1, O=C(CCN1CCCCCC1)Nc1ccc(F)c(F)c1, Cc1nn(CC(=O)NCc2ccccc2Cl)c(=O)c2cccn12, O/N=C/c1ccc(OCc2ccccc2)c(Br)c1, Cc1cccc(-c2nc(CCNC(=O)c3ccccc3Br)cs2)c1

Activity change, negative = inhibition, inconclusive:
C/C(=N\Nc1cccc2cccnc12)c1ccccn1 -41.6% [inhibitor] [at 7.66 µM]
